{"source": "PubChem BioAssay (EPA / NIEHS)", "biological_target": "human Protein Tyrosine Phosphatase Receptor Type C (PTPRC), PTPRC (gene 5788) (UniProt P08575)", "sequence (P08575 whole entry, looked up)": "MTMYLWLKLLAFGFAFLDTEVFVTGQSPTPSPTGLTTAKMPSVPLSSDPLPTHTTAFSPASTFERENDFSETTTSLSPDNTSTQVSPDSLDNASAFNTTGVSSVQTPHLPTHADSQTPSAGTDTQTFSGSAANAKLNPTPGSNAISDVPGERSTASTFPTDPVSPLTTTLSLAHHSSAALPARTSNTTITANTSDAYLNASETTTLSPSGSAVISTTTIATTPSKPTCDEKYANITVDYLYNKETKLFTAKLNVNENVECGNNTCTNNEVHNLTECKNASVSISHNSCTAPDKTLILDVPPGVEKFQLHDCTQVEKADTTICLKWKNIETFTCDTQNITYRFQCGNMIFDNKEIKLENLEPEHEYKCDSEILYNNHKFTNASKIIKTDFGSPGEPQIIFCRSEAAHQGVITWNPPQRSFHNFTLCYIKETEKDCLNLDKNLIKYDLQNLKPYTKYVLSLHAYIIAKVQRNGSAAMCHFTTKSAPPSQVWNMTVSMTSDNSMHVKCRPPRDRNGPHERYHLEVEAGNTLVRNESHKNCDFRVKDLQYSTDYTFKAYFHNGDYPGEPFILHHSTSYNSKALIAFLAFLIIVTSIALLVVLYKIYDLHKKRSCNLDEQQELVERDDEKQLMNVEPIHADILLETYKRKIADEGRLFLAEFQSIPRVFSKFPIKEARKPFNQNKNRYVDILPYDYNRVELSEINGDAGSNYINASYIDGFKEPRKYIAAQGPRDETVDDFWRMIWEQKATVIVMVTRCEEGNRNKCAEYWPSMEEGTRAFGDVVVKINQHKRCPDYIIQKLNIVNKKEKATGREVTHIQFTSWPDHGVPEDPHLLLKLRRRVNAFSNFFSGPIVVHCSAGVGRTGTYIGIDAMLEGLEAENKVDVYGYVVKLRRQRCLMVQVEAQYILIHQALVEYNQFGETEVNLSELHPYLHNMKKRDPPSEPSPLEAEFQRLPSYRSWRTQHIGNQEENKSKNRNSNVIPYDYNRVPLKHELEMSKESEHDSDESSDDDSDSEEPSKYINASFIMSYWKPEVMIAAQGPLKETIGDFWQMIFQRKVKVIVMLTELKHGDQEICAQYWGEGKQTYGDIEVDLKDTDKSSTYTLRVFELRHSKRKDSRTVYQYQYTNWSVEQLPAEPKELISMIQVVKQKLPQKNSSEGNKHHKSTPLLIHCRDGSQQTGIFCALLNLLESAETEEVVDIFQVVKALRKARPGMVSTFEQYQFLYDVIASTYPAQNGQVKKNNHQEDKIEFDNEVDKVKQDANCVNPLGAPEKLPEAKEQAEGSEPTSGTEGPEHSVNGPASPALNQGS", "experiment": "NVS_ENZ_hPTPRC: NovaScreen (NVS) Enzymatic Assay for human Protein Tyrosine Phosphatase Receptor Type C (PTPRC) (AID 2283212)", "procedure": "NVS_ENZ_hPTPRC is a biochemical, single-readout assay that uses extracted gene-proteins from yeast cells in a cell-free assay. Measurements were taken 1 hour after chemical dosing in a 96-well plate.NVS_ENZ_hPTPRC is one of one assay component(s) measured or calculated from the NVS_ENZ_hPTPRC assay. It is designed to make measurements of enzyme activity, a form of enzyme reporter, as detected with absorbance signals by Colorimetric technology.Data from the assay component NVS_ENZ_hPTPRC was analyzed into 1 assay endpoint. This assay endpoint, NVS_ENZ_hPTPRC, was analyzed in the positive analysis fitting direction relative to DMSO as the negative control and baseline of activity. […] Furthermore, this assay endpoint can be referred to as a primary readout, because this assay has produced multiple assay endpoints where this one serves a enzymatic activity function. […]\nBinding assays used specific radioligands (tritiated, iodinated) with non-radioactive competitive displacement ligands in agonist or antagonist protocols (as indicated) and various reference compounds and inhibitors to titrate specific binding to receptors and transporters. Most enzyme assays (CYPs, kinases, phosphatases, proteases, HDACs) used recombinant protein and specific substrates (fluorescence mostly, some colorimetric and radioactive) and inhibitors, followed by a biochemical separation of substrate and product. […]", "note": "Results filed as inconclusive are left out. How the source made its calls: active means hit-call score of the fitted dose curve at least 0.9, where 1 is the maximum; inconclusive means response in the unintended direction; inactive means score below 0.9. The source holds more than one record for some entries. The other results are left out here. An entry can have further records. Results that share an entry repeat one measurement (runs, samples, wells, individuals or studies)."}
{"molecule": "S=C(S)NCCNC(=S)S.[Mn+2].[S-]C([S-])=NCCN=C([S-])[S-].[Zn+2]", "values": [{"measurement": "AC50", "value": "active: 905 nM, 1.29 µM, 17.1 µM, 263 nM, 293 nM, 1.82 µM [separate samples]"}]}
